In publication PMC9911399, “Two distinct binding modes provide the RNA-binding protein RbFox with extraordinary sequence specificity” one finds binding signal data, which are given here for 31 molecules.

Where a chain is given by its changes, count along the chain named. The list shows a part of the results.

Sequences and labels used below:
T1: RBFOX1 RRM RbFoxmut (Fox-RRM*) (Homo sapiens, UniProt Q9NWB1 109-208, R118D;E147R;N151S;E152T)
T1 sequence: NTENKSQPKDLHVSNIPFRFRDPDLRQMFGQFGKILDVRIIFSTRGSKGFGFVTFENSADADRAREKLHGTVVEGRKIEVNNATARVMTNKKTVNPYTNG

B1: GGUUAUA (DNA:RNA)
RNA: GGGAGACCGGAAUUCAGAUUGUCCGGUUAUAUUAAAUCCCGUCGUAGCCACCA
DNA 1: CAATCTGAATTCCGGTCTCCC
DNA 2: TGGTGGCTACGACGGGATT
B2: UCGGGGA (DNA:RNA)
RNA: B1 RNA with G25U, G26C, U27G, U28G, A29G, U30G
DNA 1: CAATCTGAATTCCGGTCTCCC
DNA 2: TGGTGGCTACGACGGGATT
B3: GAAUCCA (DNA:RNA)
RNA: B1 RNA with G26A, U27A, A29C, U30C
DNA 1: CAATCTGAATTCCGGTCTCCC
DNA 2: TGGTGGCTACGACGGGATT
B4: UCAUGGG (DNA:RNA)
RNA: B1 RNA with G25U, G26C, U27A, A29G, U30G, A31G
DNA 1: CAATCTGAATTCCGGTCTCCC
DNA 2: TGGTGGCTACGACGGGATT
B5: GGUGUAC (DNA:RNA)
RNA: B1 RNA with U28G, A29U, U30A, A31C
DNA 1: CAATCTGAATTCCGGTCTCCC
DNA 2: TGGTGGCTACGACGGGATT
B6: CCAUGCC (DNA:RNA)
RNA: B1 RNA with G25C, G26C, U27A, A29G, U30C, A31C
DNA 1: CAATCTGAATTCCGGTCTCCC
DNA 2: TGGTGGCTACGACGGGATT
B7: GGACUAA (DNA:RNA)
RNA: B1 RNA with U27A, U28C, A29U, U30A
DNA 1: CAATCTGAATTCCGGTCTCCC
DNA 2: TGGTGGCTACGACGGGATT
B8: UACCUAC (DNA:RNA)
RNA: GGGAGACCGGAAUUCAGAUUGUCCUACCUACUUAAAUCCCGUCGUAGCCACCA
DNA 1: CAATCTGAATTCCGGTCTCCC
DNA 2: TGGTGGCTACGACGGGATT
B9: AAUACGG (DNA:RNA)
RNA: B1 RNA with G25A, G26A, U28A, A29C, U30G, A31G
DNA 1: CAATCTGAATTCCGGTCTCCC
DNA 2: TGGTGGCTACGACGGGATT
B10: GAUCCCC (DNA:RNA)
RNA: B8 RNA with U25G, C27U, U29C, A30C
DNA 1: CAATCTGAATTCCGGTCTCCC
DNA 2: TGGTGGCTACGACGGGATT
B11: ACUCCCG (DNA:RNA)
RNA: B1 RNA with G25A, G26C, U28C, A29C, U30C, A31G
DNA 1: CAATCTGAATTCCGGTCTCCC
DNA 2: TGGTGGCTACGACGGGATT
B12: CUUCAGC (DNA:RNA)
RNA: B1 RNA with G25C, G26U, U28C, U30G, A31C
DNA 1: CAATCTGAATTCCGGTCTCCC
DNA 2: TGGTGGCTACGACGGGATT
B13: GUAUGUG (DNA:RNA)
RNA: B1 RNA with G26U, U27A, A29G, A31G
DNA 1: CAATCTGAATTCCGGTCTCCC
DNA 2: TGGTGGCTACGACGGGATT
B14: GGCUCUA (DNA:RNA)
RNA: B1 RNA with U27C, A29C
DNA 1: CAATCTGAATTCCGGTCTCCC
DNA 2: TGGTGGCTACGACGGGATT
B15: AUACUGC (DNA:RNA)
RNA: B8 RNA with U25A, A26U, C27A, A30G
DNA 1: CAATCTGAATTCCGGTCTCCC
DNA 2: TGGTGGCTACGACGGGATT
B16: CAUGGUA (DNA:RNA)
RNA: B1 RNA with G25C, G26A, U28G, A29G
DNA 1: CAATCTGAATTCCGGTCTCCC
DNA 2: TGGTGGCTACGACGGGATT
B17: UGUUCCG (DNA:RNA)
RNA: B1 RNA with G25U, A29C, U30C, A31G
DNA 1: CAATCTGAATTCCGGTCTCCC
DNA 2: TGGTGGCTACGACGGGATT
B18: CUAACCU (DNA:RNA)
RNA: GGGAGACCGGAAUUCAGAUUGUCCCUAACCUUUAAAUCCCGUCGUAGCCACCA
DNA 1: CAATCTGAATTCCGGTCTCCC
DNA 2: TGGTGGCTACGACGGGATT
B19: GAGGGAU (DNA:RNA)
RNA: B8 RNA with U25G, C27G, C28G, U29G, C31U
DNA 1: CAATCTGAATTCCGGTCTCCC
DNA 2: TGGTGGCTACGACGGGATT
B20: GAUAUUU (DNA:RNA)
RNA: B1 RNA with G26A, U28A, A29U, A31U
DNA 1: CAATCTGAATTCCGGTCTCCC
DNA 2: TGGTGGCTACGACGGGATT
B21: AAAGAAA (DNA:RNA)
RNA: B1 RNA with G25A, G26A, U27A, U28G, U30A
DNA 1: CAATCTGAATTCCGGTCTCCC
DNA 2: TGGTGGCTACGACGGGATT
B22: UCGAGCA (DNA:RNA)
RNA: B18 RNA with C25U, U26C, A27G, C29G, U31A
DNA 1: CAATCTGAATTCCGGTCTCCC
DNA 2: TGGTGGCTACGACGGGATT
B23: ACGACAC (DNA:RNA)
RNA: B18 RNA with C25A, U26C, A27G, C30A, U31C
DNA 1: CAATCTGAATTCCGGTCTCCC
DNA 2: TGGTGGCTACGACGGGATT
B24: CCCACGC (DNA:RNA)
RNA: B18 RNA with U26C, A27C, C30G, U31C
DNA 1: CAATCTGAATTCCGGTCTCCC
DNA 2: TGGTGGCTACGACGGGATT
B25: GCCUAUA (DNA:RNA)
RNA: B1 RNA with G26C, U27C
DNA 1: CAATCTGAATTCCGGTCTCCC
DNA 2: TGGTGGCTACGACGGGATT
B26: UGGUGGC (DNA:RNA)
RNA: B1 RNA with G25U, U27G, A29G, U30G, A31C
DNA 1: CAATCTGAATTCCGGTCTCCC
DNA 2: TGGTGGCTACGACGGGATT
B27: CCGGUGA (DNA:RNA)
RNA: B18 RNA with U26C, A27G, A28G, C29U, C30G, U31A
DNA 1: CAATCTGAATTCCGGTCTCCC
DNA 2: TGGTGGCTACGACGGGATT
B28: UUCUUCG (DNA:RNA)
RNA: B8 RNA with A26U, C28U, A30C, C31G
DNA 1: CAATCTGAATTCCGGTCTCCC
DNA 2: TGGTGGCTACGACGGGATT
B29: GUGAACA (DNA:RNA)
RNA: B18 RNA with C25G, A27G, C29A, U31A
DNA 1: CAATCTGAATTCCGGTCTCCC
DNA 2: TGGTGGCTACGACGGGATT
B30: AUCAGGC (DNA:RNA)
RNA: B18 RNA with C25A, A27C, C29G, C30G, U31C
DNA 1: CAATCTGAATTCCGGTCTCCC
DNA 2: TGGTGGCTACGACGGGATT
B31: AUAGGUA (DNA:RNA)
RNA: B18 RNA with C25A, A28G, C29G, C30U, U31A
DNA 1: CAATCTGAATTCCGGTCTCCC
DNA 2: TGGTGGCTACGACGGGATT

The target of the assay is T1, RBFOX1 RRM RbFoxmut (Fox-RRM*). In words: EMSA; HiTS-Eq, 1 nM pool, 10 min; buffer printed only for the single-RNA assays: 10 mM Tris pH 7.5, 150 mM NaCl, 3.4 mM EDTA, 0.001% NP-40, 30 C. Conditions: tags: His6 N-terminal (pET28a); label: 5' 32P. An outline of the steps: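 Purified RbFox RRM, wild type or mutant, was incubated for 10 min in 50 µL with 1 nM of a 5′-radiolabelled RNA pool carrying 7 randomized nucleotides, whose flanks were annealed to DNA oligonucleotides, over a series of increasing protein concentrations. Unbound RNA was resolved on 8% native PAGE, cut out, reverse-transcribed, barcoded by PCR and sequenced on an Illumina HiSeq 2500. Relative association constants were derived from changes in read counts for each RNA species versus the control reaction and normalised to the cognate motif.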
In general terms: Mobility shift assays separate free from complexed probe on a gel.
As to B1, the binding signal was 0.121 KA relative to UGCAUGU.

Regarding B2, the binding signal was 0.0781 KA relative to UGCAUGU.

Consider B3, for which the binding signal is 0.239 KA relative to UGCAUGU. For the molecule B4, the binding signal was 0.0933 KA relative to UGCAUGU. As to B5, the binding signal is 0.0906 KA relative to UGCAUGU.

Regarding B6, the binding signal is 0.19 KA relative to UGCAUGU. As to B7, the binding signal is 0.0685 KA relative to UGCAUGU. With B8, the binding signal is 0.111 KA relative to UGCAUGU. Turning to B9, the binding signal was 0.0866 KA relative to UGCAUGU.

With B10, the binding signal is 0.0752 KA relative to UGCAUGU. B11: the binding signal was 0.0703 KA relative to UGCAUGU. The figure for B12 is 0.105 KA relative to UGCAUGU. B13: the binding signal was 0.787 KA relative to UGCAUGU.

For the molecule B14, the binding signal is 0.0911 KA relative to UGCAUGU. For the molecule B15, the binding signal is 0.101 KA relative to UGCAUGU.

B16: the binding signal is 0.217 KA relative to UGCAUGU.

Consider B17, for which the binding signal is 0.148 KA relative to UGCAUGU. The same measure for B18: 0.0999 KA relative to UGCAUGU.

B19: the binding signal was 0.0686 KA relative to UGCAUGU.

With B20, the binding signal is 0.0929 KA relative to UGCAUGU. The figure for B21 is 0.0982 KA relative to UGCAUGU. For the molecule B22, the binding signal was 0.102 KA relative to UGCAUGU.

Take B23: the binding signal is 0.059 KA relative to UGCAUGU. Take B24: the binding signal was 0.0674 KA relative to UGCAUGU.

In the case of B25, the binding signal was 0.106 KA relative to UGCAUGU. On to B26, for which the binding signal is 0.0887 KA relative to UGCAUGU. The figure for B27 is 0.0874 KA relative to UGCAUGU.

On to B28, for which the binding signal was 0.106 KA relative to UGCAUGU. On to B29, for which the binding signal is 0.103 KA relative to UGCAUGU. Regarding B30, the binding signal is 0.132 KA relative to UGCAUGU.

As for B31, the binding signal is 0.156 KA relative to UGCAUGU.
